{"sequences": {"note": "Sequences of proteins named here, by UniProt entry; tags and fusion partners are left off. A change or cut given only in a name is not applied to a line headed by its entry. Residues count along the entry.", "UniProt Q00987": "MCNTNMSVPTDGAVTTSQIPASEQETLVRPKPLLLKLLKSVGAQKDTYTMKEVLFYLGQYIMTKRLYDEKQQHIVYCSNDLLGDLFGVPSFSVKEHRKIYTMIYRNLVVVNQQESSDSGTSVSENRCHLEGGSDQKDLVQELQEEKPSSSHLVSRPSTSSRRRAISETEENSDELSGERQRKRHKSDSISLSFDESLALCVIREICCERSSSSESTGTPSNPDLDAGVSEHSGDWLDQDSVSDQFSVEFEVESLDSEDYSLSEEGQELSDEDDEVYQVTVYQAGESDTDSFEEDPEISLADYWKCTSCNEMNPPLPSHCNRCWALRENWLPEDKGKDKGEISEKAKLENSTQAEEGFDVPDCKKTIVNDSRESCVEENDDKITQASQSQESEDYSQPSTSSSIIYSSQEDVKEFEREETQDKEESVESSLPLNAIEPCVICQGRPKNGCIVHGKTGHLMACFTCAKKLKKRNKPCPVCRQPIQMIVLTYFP", "GST-Mdm2 mutant 237–288": "residues 237-288 of Q00987"}, "source": "paper PMC4933444", "binders": {"B1": {"name": "His-HBP1 (protein, UniProt O60381 1-514)", "chain": "MVWEVKTNQMPNAVQKLLLVMDKRASGMNDSLELLQCNENLPSSPGYNSCDEHMELDDLPELQAVQSDPTQSGMYQLSSDVSHQEYPRSSWNQNTSDIPETTYRENEVDWLTELANIATSPQSPLMQCSFYNRSSPVHIIATSKSLHSYARPPPVSSSSKSEPAFPHHHWKEETPVRHERANSESESGIFCMSSLSDDDDLGWCNSWPSTVWHCFLKGTRLCFHKGSNKEWQDVEDFARAEGCDNEEDLQMGIHKGYGSDGLKLLSHEESVSFGESVLKLTFDPGTVEDGLLTVECKLDHPFYVKNKGWSSFYPSLTVVQHGIPCCEVHIGDVCLPPGHPDAINFDDSGVFDTFKSYDFTPMDSSAVYVLSSMARQRRASLSCGGPGGQDFARSGFSKNCGSPGSSQLSSNSLYAKAVKNHSSGTVSATSPNKCKRPMNAFMLFAKKYRVEYTQMYPGKDNRAISVILGDRWKKMKNEERRMYTLEAKALAEEQKRLNPDCWKRKRTNSGSQQH"}}, "test_in_all_cases": "pull-down; GST pull-down: purified GST or GST-tagged proteins on glutathione-Sepharose beads overnight at 4 °C, His-tagged proteins added for 4 h at 4 °C, washed three times, eluted, Western blot; both purified", "key": {"GST-Mdm2 mutant 237–288": {"target": "GST-Mdm2 mutant 237–288 (UniProt Q00987)"}, "GST-Mdm2": {"target": "GST-Mdm2 (UniProt Q00987)"}, "GST-p53 mutant 40–92": {"target": "GST-p53 mutant 40–92 (UniProt P04637)"}, "GST-p53 mutant 356–393": {"target": "GST-p53 mutant 356–393 (UniProt P04637)"}, "GST-p53": {"target": "GST-p53 (UniProt P04637)"}}, "note": "Results are given in words; binding and its absence hold for the method and conditions named. Some entries that bind do so weakly or less than the wild type. Sequences can lack the tags named with a protein."}
{"binder": "B1", "values": [{"measurement": "binding", "setting": "GST-Mdm2 mutant 237–288", "result": "no binding"}, {"measurement": "binding", "setting": "GST-Mdm2", "result": "binds"}, {"measurement": "binding", "setting": "GST-p53 mutant 40–92", "result": "no binding"}, {"measurement": "binding", "setting": "GST-p53 mutant 356–393", "result": "no binding"}, {"measurement": "binding", "setting": "GST-p53", "result": "binds"}]}
